Results taken from patent publication US20260209331A1 (published 2026).

How the values were obtained:
[1] = target: T1, P19 subunit of human IL-23 (IL23p19) (UniProt Q9NPF7 20-189); assay: SPR
T1 chain: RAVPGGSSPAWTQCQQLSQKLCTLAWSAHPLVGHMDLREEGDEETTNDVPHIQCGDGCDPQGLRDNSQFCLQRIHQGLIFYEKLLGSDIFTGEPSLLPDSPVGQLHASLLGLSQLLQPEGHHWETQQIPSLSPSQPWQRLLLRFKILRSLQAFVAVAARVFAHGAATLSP

human TNF alpha (TNFα) [2] = target: T2, human TNF alpha (TNFα) (UniProt P01375 in part); assay: SPR
human TNF alpha (TNFα) [3] = target: T2, human TNF alpha (TNFα); assay: SPR; pre-bound with IL23p19
T2 sequence (P01375 77-233): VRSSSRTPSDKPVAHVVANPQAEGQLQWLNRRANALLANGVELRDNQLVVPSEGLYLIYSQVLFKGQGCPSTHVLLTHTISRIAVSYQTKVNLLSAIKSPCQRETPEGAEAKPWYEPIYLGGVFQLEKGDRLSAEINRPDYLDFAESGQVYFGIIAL

| Binder | Kd [1] [nM] | Kd (human TNF alpha (TNFα) [2]) [nM] | Kd (human TNF alpha (TNFα) [3]) [nM] |
| --- | --- | --- | --- |
| BsAb #D1 (antibody) chain 1: not shown chain 2: QSVLTQPPSVSGAPGQRVTISCTGSSSNIGSGYDVHWYQQLPGTAPKLLIYGNSKRPSGVPDRFSGSKSGTSASLAITGLQSEDEADYYCASWTDGLSLVVFGGGTKLTVLGQPKAAPSVTLFPPSSEELQANKATLVCLISDFYPGAVTVAWKADSSPVKAGVETTTPSKQSNNKYAASSYLSLTPEQWKSHRSYSCQVTHEGSTVEKTVAPTECS | 0.14 | 0.28 | 0.14 |
| BsAb #B5 (antibody) chain 1: not shown chain 2: QSVLTQPPSVSGAPGQRVTISCTGSSSNIGSGYDVHWYQQLPGTAPKLLIYGNSKRPSGVPDRFSGSKSGTSASLAITGLQSEDEADYYCASWTDGLSLVVFGGGTKLTVLGQPKAAPSVTLFPPSSEELQANKATLVCLISDFYPGAVTVAWKADSSPVKAGVETTTPSKQSNNKYAASSYLSLTPEQWKSHRSYSCQVTHEGSTVEKTVAPTECS | 0.06 | 0.71 | 1.07 |
| BsAb #A5 (antibody) chain 1: not shown chain 2: QSVLTQPPSVSGAPGQRVTISCTGSSSNIGSGYDVHWYQQLPGTAPKLLIYGNSKRPSGVPDRFSGSKSGTSASLAITGLQSEDEADYYCASWTDGLSLVVFGGGTKLTVLGQPKAAPSVTLFPPSSEELQANKATLVCLISDFYPGAVTVAWKADSSPVKAGVETTTPSKQSNNKYAASSYLSLTPEQWKSHRSYSCQVTHEGSTVEKTVAPTECS chain 3: not shown chain 4: EVQLVQSGAEVKKPGESLKISCKGSGYSFSNYWIGWVRQMPGKGLEWMGIIDPSNSYTRYSPSFQGQVTISADKSISTAYLQWSSLKASDTAMYYCARWYYKPFDVWGQGTLVTVSSASTKGPSVFPLAPSSKSTSGGTAALGCLVKDYFPEPVTVSWNSGALTSGVHTFPAVLQSSGLYSLSSVVTVPSSSLGTQTYICNVNHKPSNTKVDKKV[letters of human IgG1 Fc with changes left out] | 0.04 | 0.39 | – |
| BsAb #D2 (antibody) chain 1: not shown chain 2: QSVLTQPPSVSGAPGQRVTISCTGSSSNIGSGYDVHWYQQLPGTAPKLLIYGNSKRPSGVPDRFSGSKSGTSASLAITGLQSEDEADYYCASWTDGLSLVVFGGGTKLTVLGQPKAAPSVTLFPPSSEELQANKATLVCLISDFYPGAVTVAWKADSSPVKAGVETTTPSKQSNNKYAASSYLSLTPEQWKSHRSYSCQVTHEGSTVEKTVAPTECS | 0.04 | 0.29 | 0.41 |
